Assay results published in the supplement of paper PMC10126150.
Sequences with one replicate were seen in a single cluster, so their values are uncertain.

Test system: ATP
Assay: switch fluorescence ratio, 500 uM ATP over buffer (Cy3 cluster intensity, sum of 5 cycles each) (fold (ratio)); higher = stronger signal-on switching upon ATP binding; sequences stand for … in TCGTCGGCAGCGTCAGATGTGTATAAGAGACAGTTTTTTTTTTTTTTTTTTTTTTTTT…TC
Conditions: aptamer strand: ATP DNA aptamer (quencher-CACCTGGGGGAGTATTGCGGAGGAAGG + anchor), 100 nM annealed; ATP concentration: 500 uM; one replicate
Method in brief: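 Cy3-labelled switching-strand clusters on a modified Illumina MiSeq flow-cell were annealed to 100 nM quencher-labelled ATP aptamer, imaged in selection buffer, then imaged after 15 min with 500 uM ATP at 22 °C. Five buffer/ATP cycles ran, with NaOH stripping and re-annealing between them. The fluorescence ratio is summed target-cycle over summed buffer-cycle Cy3 intensity per cluster, averaged per switch-domain sequence. Clusters outside 100-1000 RFU were excluded.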
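Also: ATP exposure 15 min at 22 °C before imaging.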

Sequence	switch fluorescence ratio
TGCCTTACCT	1.23
CAGCCTAAGC	0.991
ACACCGGACG	1.16
TACTACGGGC	0.964
GACTCTTGAT	0.978
TTATTCGCAG	1.07
TTGTACGGTA	1.09
AGTCCCAGTT	1.05
ATCGATATG	1
AGGTGGTG	0.979
CTGCTACTAG	1.08
ATTGTAGATC	1.02
TCAAGGCCCC	0.969
ATTCCGTCCA	1.01
CAACCATAGT	1.13
ATATGAATGG	0.993
CATTAATAGC	0.987
TAAGGAATCC	1.05
TGGGCGGCCG	1.02
GACGACCCT	1.2
CGGACAGAAC	1.06
TTGTAACATG	0.994
CTCGTCTGGG	1.05
GTCGATGGTC	0.998
AGATGCGCTA	0.996
CTAACGCTTT	1.17

Sequence	switch fluorescence ratio
TCAGTTTTAA	0.977
AGCAGGGGCA	1.06
CGATGGGCGG	0.962
TCAAAGGTCC	0.971
TGTGTGCAG	1
GGCATTGCTT	0.988
CCCAGATTCA	1.05
GATAATTTCG	1.04
GCCTGTTTT	0.945
GAGAAAAGAT	1.01
CTTGCTGCTT	0.972
ATATACTGCT	1.03
GAAGTAAGCG	1.01
CGGATAAGGG	0.998
CTAAGCAATG	2.33
TCCGGTGAAC	1.75
GAGTGACGA	0.955
TGATGAGAGC	1.11
AAAACTACAT	1.03
AATGCGCGGA	0.979
TTATACGCCT	1.05
TGGGACGCGT	1.03
GGATTTCTGT	1
TTTTGCAAAA	1.03
AGTCAGACT	0.994
CAGCTCATTT	0.982

Sequence	switch fluorescence ratio
CACAAGAGTG	1.01
TGCTCTAGGT	1.05
AGTACCGTA	1.08
GGTGATTGCC	0.974
ATGTGGGTGG	1.01
GGCGTCAGGT	0.985
ATTTGGCTCA	0.998
CTTAGTATAC	1.18
GTTATGGAAG	1.03
TTTAGGTACA	0.993
TTCCCCGAC	1.42
TTTACCAACA	1.09
GGTTAATGGG	0.996
TCTGACCGTC	1.06
CGCCGTGGCG	1.02
GGATGGTCCT	0.965
GATGGTACCT	1.07
TTCTGTAGGT	1.05
ACTATGGTCT	1.01
ACGTGGCGGC	1.02
CCGTGGTGAC	1.77
AGCCCGTAGT	1.03
CCCTTTCGGC	1.03
CTGGAAGGCG	0.991
ACGGGTTAAA	1.01
CTCCTTTGGA	1.02

Sequence	switch fluorescence ratio
CACAGGAAGA	1.05
CAATGCGGT	1.03
TTCCATCCCT	1.09
CAACCGGCAA	6.15
TAGTACACTC	1.04
ATCCACCTAT	1.09
CTCTTACTGT	0.967
GAGGAGGACA	0.96
GGCATGAGCC	1.12
CTGGTAGGTA	0.986
CGGATTGAGG	0.933
GGTCGTTCCG	0.945
CCCAAGTAGT	1.04
TGCAGCAGGG	0.994
AGGGACACAT	1.16
ACAAAGCTGC	1.11
TGATTCGATA	1.01
TAAGTCACAA	1.09
AAGGTTGACA	0.989
AATGTAACTT	0.983
GCGGAAATAT	0.983
GATGGTGCG	0.965
ACCGTATGTA	1.18
GGAAGATTAC	1.05
CAGGGGCCTG	1.04
ACAATACTTT	1.13

Sequence	switch fluorescence ratio
GGAGTTGTGC	1.1
AGCTATACCT	1.53
ACCCAGTTCG	1.06
CGGAAGGTAC	1.21
GCTGTGATCG	1.01
TTTACTATCT	1.02
CTACGGGTTA	1.05
GCCAGGGCCG	1.03
TGCTTAGTGG	0.959
TAATAACGGA	1.03
GCTAGCGGTT	1.03
TTCTGGCGCT	1.06
TGCTTGGAGT	1.04
ACAAGATTTG	0.982
GGGTGTGGTT	1.01
CTCAGAGAGA	0.984
TTCCGAATTA	1.08
ACCAATGCAA	1.75
CTGGGGAGCC	0.993
TCACTAGCTT	0.97
TTTCAGGAAT	1.41
TTTATGACAG	0.981
CGCACTCCAA	3.3
ACCTGAAGA	1.06
AACATATGTA	0.941
TGCCGCTTCA	1

Sequence	switch fluorescence ratio
AACCTGCAGT	1.01
AGTGATGCTC	1.27
AAAATCGCGC	1.03
TTTACCTCAG	1.03
TCGTTGGCCC	0.996
TTACTCAGAG	0.981
GCTAGCAGCT	1
AATATGCACA	1.01
ACATTCCATC	1.12
AATTAAAACA	0.994
TGGCGTCGT	0.958
AGGTTTTACG	1
TTCTCCCCCC	1.81
GCTAAAGGCG	0.999
AGGATTTAGC	0.972
ATGATGCTGT	0.995
AACGTTTATG	0.997
TAACATGTTA	0.994
ATTTTGTTAC	1.03
CCCGGAAGCG	1.01
TTTTGACACT	1.02
CAGTTTGGCA	1.02
ATATCACGCG	0.982
TAGTGTAACT	1.02
CCCAGATGAG	1.09
TACATGATTC	0.976

Sequence	switch fluorescence ratio
CCTTATTACT	1.05
ACTAGTGACA	1.04
TAGGTGCCG	0.994
TAATTTTCGA	0.988
CGAGGGTTTC	1.05
AAATAGGTCC	1.05
CGCTAGCGCG	0.983
GTAATTGCAT	1.02
AAAACCATGG	1.01
AAGGACATCG	1.07
ATCTTTTCCG	1.04
AAAAATGCAG	1.01
AAGTGAGTTA	0.974
AGCGGGATCA	1.01
TTTTGACCAG	0.968
CGTGTGAAA	1.02
TTAATGAGTC	1.04
AACGAGGACG	0.964
CCGTTACCTT	1.14
CAGTCAAGGC	1.31
TTTGAACAAA	0.98
ACCGAGGGGC	1.03
ACCTCCCCCC	1.26
GCGCAAATGC	2.08
TCTTATTTCC	0.952
CTGATTTTTC	0.973

Sequence	switch fluorescence ratio
TTAGACTCT	1.02
GCTTTGCAGG	0.977
GATGCTTGT	1.01
CCTGGTTTCT	0.972
GGGCTTAGG	1.05
ATTTGACGTC	1
GTCTTACGTT	0.997
TCAAACGGTG	1.01
GTCTGGTGAT	0.975
ACTTGATTTA	1.03
ACATCGCGTC	1.12
TCGCCTTGAG	1.01
GGCGGGCAGC	1
GTGTGGTTGG	0.989
TAAGTCACCT	1.2
TGATATAGGT	1.02
AGGGCTAGG	1.01
TGTCGTCGTT	0.998
GACATTGGAT	1
